The list shows a part of the results.
Target: T1, OsWOX13 (Oryza sativa, UniProt Q5QMM3 1-267)
T1 sequence: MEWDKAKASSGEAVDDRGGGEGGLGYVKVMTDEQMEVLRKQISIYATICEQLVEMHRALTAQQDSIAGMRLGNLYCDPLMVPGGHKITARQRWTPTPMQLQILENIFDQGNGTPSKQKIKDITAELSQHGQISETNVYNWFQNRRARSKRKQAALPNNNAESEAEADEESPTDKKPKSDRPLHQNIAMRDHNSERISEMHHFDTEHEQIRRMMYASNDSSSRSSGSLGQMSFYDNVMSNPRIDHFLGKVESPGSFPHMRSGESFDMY
Test: protein-binding microarray (RPBM); PBS, 2% BSA, 51.3 ng/ul salmon testes DNA, 50 uM zinc acetate, 200 nM TF, 25 C, 1 h; high values mean tight binding
Conditions: protein: recombinant; tags: N-terminal polyhistidine and DsRed monomer fusion (pET32a); label: CyDye5-dUTP incorporated in the synthesized complementary strand; 3' TTTTT single-stranded linker to array surface; dsDNA, one strand shown
Outline: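 Ni–NTA purification followed expression in E. coli BL21-CodonPlus of transcription factors fused N-terminally to a polyhistidine tag and DsRed. At 200 nM in PBS with 2% BSA, salmon testes DNA and 50 µM zinc acetate, the protein was incubated for 1 h at 25 °C with a custom Agilent array that had been primer-extended with Cy5-dUTP and blocked with 2% BSA. After washing, the array was read on an Axon 4000B scanner. The binding signal is per-feature fluorescence intensity in arbitrary units.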

Sequence | binding signal
AGCAACTATGATGATATAATTACGCCCTTTGTTCTCCTTTCGGAGTCACCTAGTGCAG | 4760 fluorescence intensity (a.u.)
CGAAATTTAATAAACATAAATACTGTGCACTAGATAAAGACGGAGTCACCTAGTGCAG | 6960 fluorescence intensity (a.u.)
GATTTAAACTACACTTAAATTAAATAATTCTATTAGTGGTCGGAGTCACCTAGTGCAG | 11400 fluorescence intensity (a.u.)
CTACAGTCTTCAATTAAGTTAGTCGCCGTTCCGCTGTATCCGGAGTCACCTAGTGCAG | 6180 fluorescence intensity (a.u.)
AATTACACTATAAATTTTAATAGATGTACTGCAATATTTGCGGAGTCACCTAGTGCAG | 3330 fluorescence intensity (a.u.)
ATTTGACAAAATGCAGTTATGATTTCTGAAGACGAGACATCGGAGTCACCTAGTGCAG | 5050 fluorescence intensity (a.u.)
TATCTCCCTGATTAGAGTGTGGCAAGAATAAGGTTCAAATCGGAGTCACCTAGTGCAG | 3180 fluorescence intensity (a.u.)
CAAATAATTTATTCATTATCATATTACATGAGTTTAGAATCGGAGTCACCTAGTGCAG | 22600 fluorescence intensity (a.u.)
TTAAATTTATTGCATGATGTAACAACAACAATCGTACTAGCGGAGTCACCTAGTGCAG | 37500 fluorescence intensity (a.u.)
GACCAATTTGATTTTCAGGTAAGCTCATAAGTTTATATGTCGGAGTCACCTAGTGCAG | 3840 fluorescence intensity (a.u.)
TGTTGATTAGTACATGATTAGTGAGTTGATTAGAATATGACGGAGTCACCTAGTGCAG | 46800 fluorescence intensity (a.u.)
TTTCGAAATGGCTCTAAATTGAAAGTGTTGCAGAAATTTTCGGAGTCACCTAGTGCAG | 6630 fluorescence intensity (a.u.)
CTTACTAATCAATCATAACCCTCTACCATTCCATTTCTTTCGGAGTCACCTAGTGCAG | 15800 fluorescence intensity (a.u.)
TCCTATCAATCAACGTCGTCGACGTGGAGCAGCCGCCGGTCGGAGTCACCTAGTGCAG | 35700 fluorescence intensity (a.u.)
AGAGAATTGAATTAATCCGTGTGATATATCACTAAAATTCCGGAGTCACCTAGTGCAG | 5900 fluorescence intensity (a.u.)
TACTCAAATCACGAATGACAGATCAACAGAAAGGAAATGTCGGAGTCACCTAGTGCAG | 5600 fluorescence intensity (a.u.)
AATATTTTGGTAATTTGAATAGTACTTGTGTTTGATTTCGCGGAGTCACCTAGTGCAG | 3990 fluorescence intensity (a.u.)
CATTCAAATTGAATGTAGTTTCAATTTATTTATAATAGCTCGGAGTCACCTAGTGCAG | 19800 fluorescence intensity (a.u.)
TTCCAAAATAAATCAACTTCTAGATTTTAAATTTATCTCACGGAGTCACCTAGTGCAG | 3210 fluorescence intensity (a.u.)
AACTTTAAATTTCTTCTGTAATAGATAAAGCATCTAAACCCGGAGTCACCTAGTGCAG | 5700 fluorescence intensity (a.u.)
TGCGCCTCAACAACTGAACTGATTGAGACAGTAGATGAAACGGAGTCACCTAGTGCAG | 4310 fluorescence intensity (a.u.)

Sequence | binding signal
ATGGATTGATAAGAACCGAATCACACCATTAAGAGGAGAGCGGAGTCACCTAGTGCAG | 31500 fluorescence intensity (a.u.)
ATTTGTTTGATTGTATATCCGGAAGACTGGTCCGGTATATCGGAGTCACCTAGTGCAG | 15500 fluorescence intensity (a.u.)
CTAATTACATTCCTAATTACATTCCCTTCACGCGCTCTGCCGGAGTCACCTAGTGCAG | 41200 fluorescence intensity (a.u.)
TGGGAGTATAAATCATCAGGACAATCAACCATAGCATCCACGGAGTCACCTAGTGCAG | 4210 fluorescence intensity (a.u.)
CAAATCATGGAGCAATTAGACTTAAAAGATTCGTATCGCACGGAGTCACCTAGTGCAG | 10000 fluorescence intensity (a.u.)
GTAATTAACAACCATTTTAAAGTTGAAAGATAATAAAAGTCGGAGTCACCTAGTGCAG | 4420 fluorescence intensity (a.u.)
ATGACATCAATCTGAATAGCCCTAAATCAGGCTGGCCTGGCGGAGTCACCTAGTGCAG | 6770 fluorescence intensity (a.u.)
TGTGATTAAATGATTCCTCCAGTGCTATATGCCTATATAACGGAGTCACCTAGTGCAG | 17500 fluorescence intensity (a.u.)
TCTCTGTGATTAAGCGGCGTCTTCCAGGACTCAAGCAGCGCGGAGTCACCTAGTGCAG | 3560 fluorescence intensity (a.u.)
ACTTAAATTTTACTCAGTTAGCGCTTTTAGGCTTGGATTTCGGAGTCACCTAGTGCAG | 7750 fluorescence intensity (a.u.)
TGGTTATTATATTGATTATAGATAATTTGAAGTTAGTAGTCGGAGTCACCTAGTGCAG | 31500 fluorescence intensity (a.u.)
AAGTTATTATACTAAATTACACCCACCTACTAAATTGTTGCGGAGTCACCTAGTGCAG | 3580 fluorescence intensity (a.u.)
CCTCTCTGATTCTCTGATTGATTCTGCAACGCATCACACGCGGAGTCACCTAGTGCAG | 22900 fluorescence intensity (a.u.)
GATAAAATTTATAACGAAACTGATTATCCATATATTATAACGGAGTCACCTAGTGCAG | 6060 fluorescence intensity (a.u.)
TTTCAATTGTACATGAATGACAGCATTTACAGTTTTGAATCGGAGTCACCTAGTGCAG | 4290 fluorescence intensity (a.u.)
TATTGATTGGATCACCACGTATAGTTAGCAAATCTCTAAACGGAGTCACCTAGTGCAG | 36200 fluorescence intensity (a.u.)
ATGGGTTCTGATTGAGGGATGGAATCATCGTATGTTCAACCGGAGTCACCTAGTGCAG | 30700 fluorescence intensity (a.u.)
CCGATGTTTGATTGTTCGTTTTATTTGAAAGCCTTTTATGCGGAGTCACCTAGTGCAG | 20800 fluorescence intensity (a.u.)
AAAGGTAGATAATTACTGACAATAGTAGGGTGTGTCACTACGGAGTCACCTAGTGCAG | 4470 fluorescence intensity (a.u.)
ATATTAATTTAAAGTATTAAATATAGACTACTTACAAAACCGGAGTCACCTAGTGCAG | 13700 fluorescence intensity (a.u.)
ATGATTTGGGGAATGACACTGAAGTATCCATCATTTTGCCCGGAGTCACCTAGTGCAG | 10800 fluorescence intensity (a.u.)

Sequence | binding signal
AATAATATAAATGACGGTTTTCCTAATAAACCGACACTTACGGAGTCACCTAGTGCAG | 3660 fluorescence intensity (a.u.)
GTGATAATTTGATACATAGTATTGTGGAATTTACTTTAAACGGAGTCACCTAGTGCAG | 15700 fluorescence intensity (a.u.)
TGTTAATCTTGCTGATTTTGTTATTGATTTTAATGCTATGCGGAGTCACCTAGTGCAG | 17300 fluorescence intensity (a.u.)
GGTACTTGACAGGACCGTCGACAGAAGGTTCGTCAGCTTACGGAGTCACCTAGTGCAG | 6100 fluorescence intensity (a.u.)
TGATAACAGATAAATCCCACTGTTGATAGCTGAAAGCTACCGGAGTCACCTAGTGCAG | 14500 fluorescence intensity (a.u.)
CAGACCAGCAGATTGATACCAACAAATTTATTGAGCAATGCGGAGTCACCTAGTGCAG | 23200 fluorescence intensity (a.u.)
TAAAATAGAAGCAAATTAGAATGCCGCGTTTGGATTGGATCGGAGTCACCTAGTGCAG | 6090 fluorescence intensity (a.u.)
ATCACACCCTAAATTGACTGTATTTGTGCTGAATTTTACACGGAGTCACCTAGTGCAG | 12300 fluorescence intensity (a.u.)
CTCTCAATTATAGGAAAACTAATTACTGACTACTTTCTCCCGGAGTCACCTAGTGCAG | 25000 fluorescence intensity (a.u.)
TTTTCCATCACATCAATCTGTCATACACAACTTTTCAGTCCGGAGTCACCTAGTGCAG | 12500 fluorescence intensity (a.u.)
GCACAAATAATTGTAACTCCATTGCCCCTCTGTATCTTCTCGGAGTCACCTAGTGCAG | 12500 fluorescence intensity (a.u.)
AGTTTAATTAAATTTATAGAAAGATAAAGCAATATTTTCACGGAGTCACCTAGTGCAG | 24400 fluorescence intensity (a.u.)
CTTCAGATATTAATTTGTGCCTCATGTAGTGTACCCAACACGGAGTCACCTAGTGCAG | 3530 fluorescence intensity (a.u.)
AGGGGCATTTAGATAATTGACAAACCTAATAGTTGCAAATCGGAGTCACCTAGTGCAG | 31600 fluorescence intensity (a.u.)
GACTAATTTTATCCAAAACATAAGATATTTATGATGGAAGCGGAGTCACCTAGTGCAG | 11600 fluorescence intensity (a.u.)
TCAAAATTAAAGGAGAAATTTGAAAAGACAAATGCTGCGTCGGAGTCACCTAGTGCAG | 3270 fluorescence intensity (a.u.)
AAATTAATAATTATGTGGGACCCAACTGAGAACTGTCTAACGGAGTCACCTAGTGCAG | 10600 fluorescence intensity (a.u.)
CGGCAGGTTTGCCCACTCCTGATTGGTCCACGTGGAGCTGCGGAGTCACCTAGTGCAG | 3900 fluorescence intensity (a.u.)
AGTTAAACTAATTACGTAATTGAACTAAGTAAAACTGGATCGGAGTCACCTAGTGCAG | 39200 fluorescence intensity (a.u.)
ACATTAATGTCAATTATACAATCTTAGTCTGCCAACACATCGGAGTCACCTAGTGCAG | 41600 fluorescence intensity (a.u.)
TAGTACTCTCAATTAATTACAAACCACACCATCAAATTCTCGGAGTCACCTAGTGCAG | 7020 fluorescence intensity (a.u.)

Sequence | binding signal
AAAGTAACAAAATAAACTCAAATTAGTAAGGTAAATTTGCCGGAGTCACCTAGTGCAG | 5980 fluorescence intensity (a.u.)
ATTGCAGATTGATTTATCTCGTCAAGATTGATGAGCATGCCGGAGTCACCTAGTGCAG | 63500 fluorescence intensity (a.u.)
ACAATCAGGAATAATTAAGACCCTGTCGTTGTCGGGTCTGCGGAGTCACCTAGTGCAG | 7880 fluorescence intensity (a.u.)
TAACTTCCTTGATTTGATCGGATGAAAGCAGCGACATTTGCGGAGTCACCTAGTGCAG | 10000 fluorescence intensity (a.u.)
ACCATCTATAATTAATGTAATAGACAATTCATACAACAGTCGGAGTCACCTAGTGCAG | 15500 fluorescence intensity (a.u.)
GAAATAATTAACATTTCGATTGCTGAGCTCCCCAAGTTCACGGAGTCACCTAGTGCAG | 28000 fluorescence intensity (a.u.)
GGTTCTTCTGAGCGGGGCCGGGGCGGGGCGGCAGCTGGGGCGGAGTCACCTAGTGCAG | 6700 fluorescence intensity (a.u.)
TCTTTACTTAATTAATTTGATGCATGTATGCCAGGATTTGCGGAGTCACCTAGTGCAG | 35800 fluorescence intensity (a.u.)
CATTTGCCTGATTAGTCCATTCCCCACGGTTTATATTTTCCGGAGTCACCTAGTGCAG | 10200 fluorescence intensity (a.u.)
CCGAAATTTGGATGACGAAATTCGAACAAATTTTGTTGCGCGGAGTCACCTAGTGCAG | 27200 fluorescence intensity (a.u.)
GTATAATTGCCCGGTAGGAACGGTCCTCCCTTGATGCTCCCGGAGTCACCTAGTGCAG | 27600 fluorescence intensity (a.u.)
TTTAACAGACAACGAAATTTTAGTAGAGATAACTCTTCTCCGGAGTCACCTAGTGCAG | 13200 fluorescence intensity (a.u.)
ATTAATGTATATCATTTAACAAACATGCAAATTTAAATGCCGGAGTCACCTAGTGCAG | 13900 fluorescence intensity (a.u.)
TCTTCTGATTATCTGATTATGGAAGGCATTAAGACACGGTCGGAGTCACCTAGTGCAG | 39200 fluorescence intensity (a.u.)
GCGCTATGATTAATTAATCACCTCGATCCGCCAGCTCGATCGGAGTCACCTAGTGCAG | 51100 fluorescence intensity (a.u.)
CCTCGCTGTAACCCTCACAGTTGCGAGATAATCTCCGAAACGGAGTCACCTAGTGCAG | 3350 fluorescence intensity (a.u.)
TGTTTATTTTAATTAGATGAATCATCAAATGTTTATCAAACGGAGTCACCTAGTGCAG | 11100 fluorescence intensity (a.u.)
TTTTAAAATAAATTAAATAAGACGTACGATTAAAGTTGGACGGAGTCACCTAGTGCAG | 5580 fluorescence intensity (a.u.)
CACCATTTTATGTAGATTGGCAAGGGCTCTCGTGGTGATGCGGAGTCACCTAGTGCAG | 7900 fluorescence intensity (a.u.)
GGAAACATTTAGTTAATTGTAGGAATTGTACTTCCCACGACGGAGTCACCTAGTGCAG | 11600 fluorescence intensity (a.u.)
GGGGTATCAATCAGGCTGGAGGCACATTTAAGGGAGCCATCGGAGTCACCTAGTGCAG | 18700 fluorescence intensity (a.u.)

From paper PMC7819943, “Rice protein-binding microarrays: a tool to detect cis-acting elements near promoter regions in rice”
